According to the supplement of paper PMC3334620:
In all, about 33,000 sequences were measured (“E-score (-0.5 to 0.5)”: median about -0.04, highest 2% from about 0.36 on). Some of the results follow.

molecular target: T1, Hmlalpha2 (UniProt P0CY09); assay: PBM E-score (8-mer binding enrichment) (E-score (-0.5 to 0.5)); higher = stronger / more preferred TF binding; most listed sequences are background and not binding sites; conditions: protein concentration: 200 nM; construct: GST-full length
T1 sequence: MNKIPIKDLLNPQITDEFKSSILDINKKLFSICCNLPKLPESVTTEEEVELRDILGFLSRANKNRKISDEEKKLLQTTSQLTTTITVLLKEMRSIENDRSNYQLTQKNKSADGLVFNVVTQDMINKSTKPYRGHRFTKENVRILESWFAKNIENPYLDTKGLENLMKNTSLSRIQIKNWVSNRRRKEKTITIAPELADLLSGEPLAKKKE
Method in brief: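 For each ungapped eight-base word taken together with its reverse complement, the Universal PBM Analysis Suite assigned an E-score. Binding data came from GST-tagged yeast transcription factors, applied at about 100-200 nM, on universal all-10-mer Agilent arrays made double-stranded by primer extension. Fluorescent anti-GST marked bound protein, and scans were normalised with masliner.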

| Sequence | PBM E-score |
| --- | --- |
| GCGACAGA | -0.161 |
| GAACACCC | -0.112 |
| TTGTACAA | 0.442 |
| AGGTAAAA | 0.16 |
| CTACAAAA | 0.0813 |
| AATCTTTG | 0.169 |
| GCAGCTGA | -0.142 |
| TGCTCCCA | 0.0677 |
| GGGTGCCA | -0.211 |
| CTAGGTCC | -0.196 |
| AGCCACCG | -0.248 |
| AATCGGAG | -0.157 |
| CTAGATAC | 0.159 |
| CAAGACAA | 0.156 |
| AAAACTAT | 0.132 |
| AATTTATC | 0.295 |
| AGTAAAGA | 0.121 |
| ACCTGGAC | -0.188 |
| ACGGCTCC | -0.094 |
| CTCAGGTA | 0.0219 |
| ATTAATAC | 0.29 |
| ACAACGAC | 0.175 |
| GAGGCCTC | -0.357 |
| CCTAGGCA | -0.206 |
| ATGTACTG | 0.351 |

| Sequence | PBM E-score |
| --- | --- |
| ACGTTAGC | 0.24 |
| CAGTAAAC | 0.00951 |
| ACGCAGGC | 0.0953 |
| TAAGGTGA | -0.094 |
| AAGTCCTG | -0.155 |
| CGAAGTAG | -0.0138 |
| CGGTACCA | -0.164 |
| CTTTACGA | 0.185 |
| ATATTAAA | 0.258 |
| AAAAAGGA | -0.00436 |
| CCTGAAGC | -0.225 |
| TGTTAAAA | 0.43 |
| GGTGAGCA | -0.0507 |
| CATAGCAA | 0.0168 |
| CTCGTAAG | 0.172 |
| GCATGTAC | 0.408 |
| CTCCCGAG | -0.354 |
| CGGCTGAG | -0.288 |
| CGAGTGCA | 0.18 |
| AGCTTATC | -0.216 |
| AGGCGGAT | -0.0519 |
| GCGGTGGA | -0.197 |
| CCTTACTC | -0.032 |
| ATTGCGAC | 0.00921 |
| CACTTCTC | -0.182 |

| Sequence | PBM E-score |
| --- | --- |
| GATGGAGC | -0.06 |
| GACTGCCC | -0.138 |
| AAGGCTAA | -0.0882 |
| GAAAGCAC | -0.0664 |
| ATGAATCG | 0.0465 |
| ACACTTAG | 0.112 |
| GCAGTGGA | -0.17 |
| GATTACGA | 0.301 |
| AGCGGGAC | -0.128 |
| CCTGCAGA | 2e-05 |
| GCGTCGTA | 0.144 |
| AACCGCCC | -0.0483 |
| CACAATGC | 0.00497 |
| CCCAGATC | -0.252 |
| GTTTGTAA | 0.337 |
| CAAGAGTC | -0.0613 |
| ACATTCTG | 0.128 |
| ATACCCGG | -0.118 |
| GCATAACC | -0.188 |
| CAGACAAA | 0.134 |
| CACTGGGG | -0.211 |
| ATGGAAAC | -0.195 |
| CCTAACTA | 0.021 |
| CGCTCCCA | -0.282 |
| GGCACCCA | -0.262 |

| Sequence | PBM E-score |
| --- | --- |
| CTACACAA | 0.369 |
| CCTCCATA | -0.162 |
| ATAGCCGG | 0.0442 |
| AAAGCGTT | -0.0784 |
| CCCGTAGG | -0.194 |
| CGAGTTAG | 0.066 |
| GACAGGGA | -0.0965 |
| AGCGGGGG | -0.397 |
| CAGGCGAA | 0.0909 |
| AATAGTAA | 0.132 |
| AAGGCTCA | -0.0424 |
| ATGGCCCG | -0.209 |
| AAGTTGCC | -0.261 |
| GCTGACAC | 0.0946 |
| ACATCATG | 0.214 |
| TACTCTAA | 0.00046 |
| AGGGGTCA | -0.18 |
| CATTCGTA | 0.158 |
| CCTGCAAG | -0.314 |
| AGGCACTG | -0.0971 |
| CGAAGACA | -0.108 |
| AGAGCCCT | -0.181 |
| TGACGGAA | -0.0498 |
| AACGCGCT | 0.222 |
| GCAAATTA | 0.107 |

| Sequence | PBM E-score |
| --- | --- |
| CCACTGGC | -0.115 |
| CGGCGAGC | -0.196 |
| GCGATAAA | -0.0654 |
| ACTGGGAG | -0.218 |
| CGATCAAG | 0.0473 |
| AGTTACTA | 0.122 |
| GACTAGGA | -0.13 |
| GAGCAACA | 0.0944 |
| CTGGCCTA | -0.192 |
| CACGGCTA | 0.211 |
| GCGAGATA | -0.0725 |
| AACTATCG | -0.0993 |
| TCGGACCA | -0.181 |
| CTATGACC | -0.133 |
| ACTAGCTA | -0.0302 |
| AGGGCTAA | -0.0732 |
| ACGAGAGC | -0.211 |
| GCGCTTTA | 0.0987 |
| CCTTTCGA | -0.164 |
| CGCTTCAA | -0.0744 |
| AGTTCTTC | -0.0111 |
| ACTACACG | 0.454 |
| ATCTTTTG | 0.0487 |
| ACATGCCG | 0.356 |
| TATGGGGA | -0.0461 |

| Sequence | PBM E-score |
| --- | --- |
| AAGGACGT | 0.178 |
| ATCGGTAC | -0.0952 |
| TAGCGCTA | 0.0261 |
| ATCATAGA | 0.0951 |
| CTATCGTC | -0.127 |
| ACGAAAAC | 0.227 |
| CTGGCTTC | -0.22 |
| AAGCGGCT | -0.0809 |
| AAAGTCGT | -0.0456 |
| CAAAACTG | 0.105 |
| ATCCCAAC | -0.0423 |
| ACAGGCGA | 0.0422 |
| CTAGTAAA | 0.318 |
| ATTAAACG | 0.291 |
| CGACTGCC | -0.184 |
| ACAGCTCG | -0.12 |
| GACCTTCA | -0.147 |
| AGCAGCCG | -0.126 |
| AGAATGCG | -0.00591 |
| TCAGCCAA | -0.103 |
| ATCTCGCA | 0.216 |
| AAGACTAA | -0.0103 |
| TGATGGAA | -0.0135 |
| ATGTCACA | 0.288 |
| GTTTAAAA | 0.215 |

| Sequence | PBM E-score |
| --- | --- |
| AATGTGAG | 0.102 |
| CCTTTGAC | -0.0635 |
| CGCGTCAC | 0.152 |
| CTCTTGGC | -0.183 |
| GCCATTGA | -0.162 |
| ATTTCAGG | -0.044 |
| GAAGCTGC | -0.129 |
| CCAACTTA | 0.106 |
| AAGTGACC | -0.0975 |
| ATGTTGGC | 0.207 |
| CGAAGGCA | -0.201 |
| AGGCATTG | 0.0513 |
| ACACCCAA | -0.0235 |
| AGTATCGA | 0.0829 |
| GGACACTA | -0.0613 |
| TACGAATA | 0.199 |
| CGACAGCG | -0.0823 |
| ACAGGACA | 0.22 |
| CGCACTGA | -0.0603 |
| ACCCGCCG | -0.0427 |
| GCTAAGGA | -0.195 |
| CTAGCGTA | -0.255 |
